Test results published in PubChem BioAssay AID624172 (National Center for Advancing Translational Sciences (NCATS), 2012).
The campaign covered roughly 380,000 compounds. About 25 (0.007%) were called active. Inconclusive means that the source gave no clear call. Such entries were picked first, then a sample of the others. Calls come from the whole dose curve; as a rule, active = well fitted activation curve with a large enough effect; inconclusive = small, poorly fitted or top-dose-only effect; inactive = no such curve, though single readings can be large or run the other way. Potencies of inconclusive entries are left out as doubtful fits.

Target: Glucagon-like peptide 1 receptor (Homo sapiens) (UniProt P43220)
Assay: qHTS of GLP-1 Receptor Agonists; for activation: % of control where 0% means no effect
Conditions: HEK293 GLP-1R CRE-luciferase, luminescence, 4-6 h, cells express a hypersensitive GLP-1R form; activation: at 45.6 µM (top of the series) unless noted
Potency is the fitted concentration of half-maximal effect; tags give direction and shape of the fitted curve.

Sequence of UniProt P43220 (P43220 whole entry, looked up): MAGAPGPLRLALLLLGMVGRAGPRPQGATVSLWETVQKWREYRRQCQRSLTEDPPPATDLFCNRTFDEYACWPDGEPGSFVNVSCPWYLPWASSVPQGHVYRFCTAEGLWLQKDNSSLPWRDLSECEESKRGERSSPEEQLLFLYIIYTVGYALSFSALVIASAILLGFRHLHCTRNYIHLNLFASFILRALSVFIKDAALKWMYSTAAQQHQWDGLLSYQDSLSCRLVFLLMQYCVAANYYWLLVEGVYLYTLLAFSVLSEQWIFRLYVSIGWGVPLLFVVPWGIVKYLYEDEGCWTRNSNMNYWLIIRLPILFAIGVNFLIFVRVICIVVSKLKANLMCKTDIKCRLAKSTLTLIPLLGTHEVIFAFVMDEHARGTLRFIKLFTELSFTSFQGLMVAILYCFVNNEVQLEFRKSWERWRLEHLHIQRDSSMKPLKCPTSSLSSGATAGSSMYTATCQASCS

Which Potency does the source give for COCCCOc1cc(NCc2ccccc2)c2ncn(C(C)C)c2c1 here?
The Potency was inconclusive [activator, single point].

With CCn1ccnc1CN(C)C(=O)c1cc(COc2ccccc2SC)on1 as the compound, how does the Potency read?
Its Potency is inconclusive [activator, partial curve, poor fit].

For Oc1cccc(C(O)CNCc2ccc(-c3ccccc3)cc2)c1 (centres undefined), which Potency is on record?
The Potency was inconclusive [activator, partial curve].

Cc1ccc(CNC(=O)CN(C)S(=O)(=O)c2cccs2)cc1 was tested. Which activation did it give?
The activation was inconclusive: 55.2% [activator].

For c1ccc2c(c1)nc(NC1CCCCC1)c1nncn12, which Potency is on record?
The Potency was inconclusive [activator, single point].

O=C(C1CC1)N1CCc2cc(S(=O)(=O)NCCC3=CCCCC3)ccc21 was tested. Which Potency did it give?
Its Potency is inconclusive [activator, partial curve, poor fit].

For COc1ccc(NC(C)=O)cc1S(=O)(=O)Nc1ccc2c(c1)OCCO2, which activation is on record?
The activation was inconclusive: 34.8% [activator].

With Nc1nc(NCCCN2CCOCC2)nc(Nc2ccc(F)cc2)c1[N+](=O)[O-] as the compound, how does the “activation” value read?
Its value is inactive: 13.8%.

With CC(CCCC(C)(C)O)NCc1cn[nH]c1-c1ccc2c(c1)OCO2 (centres undefined) as the compound, how does the Potency read?
Its Potency is inconclusive [activator, single point].

N#Cc1nc(-c2ccco2)oc1NCCc1ccccc1 was tested. Which Potency did it give?
Its Potency is inconclusive [activator, partial curve, poor fit].

How did the Potency turn out when COCCn1c(SCC(=O)Nc2ncc(Cl)c(C)c2Cl)nc2ccccc21 was run?
The Potency was inconclusive [activator, partial curve, poor fit].

Which Potency does the source give for O=C(Nc1cccnc1N1CCOCC1)c1cc2ccccc2oc1=O here?
The Potency was inconclusive [activator, partial curve, poor fit].

For CCOc1ccc(C(C)=O)cc1COC(=O)CCc1cc(OC)c(OC)c(OC)c1, which Potency is on record?
Its Potency is inconclusive [activator, partial curve].

For COc1ccc(/C=N/n2c(=S)n(C)c3ccccc32)cc1OC, which Potency is on record?
Its Potency is inconclusive [activator, partial curve, poor fit].

COc1cnc(-c2ccccn2)nc1Oc1ccc(Cl)c2ccccc12 was tested. Which “activation” value did it give?
The value was inactive: 14.4%.

How did the Potency turn out when CNc1ncnc2sc(-c3ccccc3)cc12 was run?
The Potency was inconclusive [activator, single point].

With CC(O)CNc1ncnc2cc(-c3ccc(F)cc3)sc12 (centres undefined) as the compound, how does the Potency read?
Its Potency is inconclusive [activator, partial curve, poor fit].

Which “activation” value does the source give for O=C(C1COc2ccccc2O1)N1CCN(c2ccccn2)CC1 (centres undefined) here?
Its value is inactive: 4.14%.

With CCCOc1ccccc1/C=C1\SC(N2CCCCC2)=NC1=O as the compound, how does the Potency read?
The Potency was inconclusive [activator, partial curve].

With Cc1ccccc1Nc1nc(N)nc(CN(C)Cc2ccccc2Cl)n1 as the compound, how does the Potency read?
The Potency was inconclusive [activator, partial curve, poor fit].

How did the Potency turn out when COc1ccc(CN(C)CC(O)COc2ccc(-c3ccccc3)cc2)cc1OC (centres undefined) was run?
The Potency was inconclusive [activator, partial curve, poor fit].

Which Potency does the source give for COc1ccc(C2=Nn3c(nnc3-c3ccccn3)SC2)cc1OC here?
The Potency was inconclusive [activator, single point].

For Cc1cccc(NC2=NC(C)(C)N=C(N)N2)c1, which “activation” value is on record?
Its value is inactive: -0.571%.

With COc1ccc(Nc2cc3n(c(=O)n2)CCc2cc(OC)c(OC)cc2-3)cc1 as the compound, how does the Potency read?
The Potency was inconclusive [activator, full curve, poor fit].

For CCC1CCCCN1c1nc2c(C=O)c(C)nn2c2ccccc12 (centres undefined), which Potency is on record?
Its Potency is inconclusive [activator, single point].

With COc1ccc(CNC(=O)c2cccc3c(-c4cnn(C)c4)coc23)cc1OC as the compound, how does the Potency read?
The Potency was inconclusive [activator, partial curve].

With COCCNc1nc(N)c([N+](=O)[O-])c(NCc2ccccc2)n1 as the compound, how does the Potency read?
Its Potency is inconclusive [activator, partial curve, poor fit].

How did the Potency turn out when N/C(CCS(=O)(=O)c1ccc(Cl)cc1)=N\OC(=O)c1ccccc1Cl was run?
The Potency was inconclusive [activator, single point].

With COc1ccc(C(=O)Nc2ccccc2NC(=O)c2ccco2)cc1OC as the compound, how does the Potency read?
The Potency was inconclusive [activator, partial curve, poor fit].

Which Potency does the source give for COc1ccc(C(=O)OCCNC(=O)c2c(Cl)nc3ccccn23)cc1 here?
The Potency was inconclusive [activator, partial curve, poor fit].

With Oc1ccc(NCc2ccccc2OCc2ccccc2F)cc1 as the compound, how does the Potency read?
Its Potency is active: 11.2 µM.

For CCOc1ccc(CCNC(=O)COC(=O)COc2ccc(C(C)=O)cc2)cc1OCC, which Potency is on record?
The Potency was inconclusive [activator, single point].

With COc1ccc(NC(=O)C2(C)Cc3c(-c4cccc(C(F)(F)F)c4)ccnc3O2)cn1 (centres undefined) as the compound, how does the Potency read?
Its Potency is inconclusive [activator, single point].

With CCN=C1S/C(=C\c2cc(OCC)c(O)cc2Br)C(=O)N1CC as the compound, how does the Potency read?
The Potency was inconclusive [activator, full curve, poor fit].

Which “activation” value does the source give for OC(COc1ccc2c(c1)OCO2)CN1CCN(c2ccccc2)CC1 (centres undefined) here?
The value was inactive: 1.18%.

Which “activation” value does the source give for CCOC(=O)CSc1c(-c2ccc(Cl)cc2)[nH]c2ccccc12 here?
The value was inactive: 2.46%.

C/C(=N/OC(=O)C1CC12CCC2)c1ccc(Br)cc1 (centres undefined) was tested. Which activation did it give?
Its activation is inconclusive: 52.5% [activator].

For c1ccc2c(OCCCCN3CCCC3)cccc2c1, which “activation” value is on record?
The value was inactive: -5.32%.

For CC1=CC(C)(C)n2c(O)c(N=N)c3c(C)c(C)cc1c32, which Potency is on record?
Its Potency is inconclusive [activator, single point].

O=C(NCc1ccccc1)C1CCCN(S(=O)(=O)c2ccc(Br)cc2)C1 (centres undefined) was tested. Which “activation” value did it give?
Its value is inactive: 0.98%.

For CC[n+]1ccc(/C=C/c2c[nH]c3ccccc23)cc1, which “activation” value is on record?
Its value is inactive: -3.22%.

How did the Potency turn out when CC(=O)c1oc2ccccc2c1NC(=O)CN1CCCCC1 was run?
Its Potency is inconclusive [activator, single point].

For O=C(OCc1cccc(Cl)c1)c1cc([N+](=O)[O-])ccc1N1CCOCC1, which Potency is on record?
Its Potency is inconclusive [activator, single point].

COc1ccccc1S(=O)(=O)c1ccccc1[N+](=O)[O-] was tested. Which “activation” value did it give?
The value was inactive: -1.2%.

How did the Potency turn out when CCOC(=O)c1cc(-c2ccccc2)nn1Cc1cc(C)no1 was run?
Its Potency is inconclusive [activator, partial curve].

COc1cc(NC(=O)C2CC(=O)NC3=C2C(=O)CCC3)c(OC)cc1Cl (centres undefined) was tested. Which Potency did it give?
Its Potency is inconclusive [activator, partial curve].

With COc1ccc2nc(SC(C(=O)c3ccccc3)c3ccccc3)nc(C)c2c1 (centres undefined) as the compound, how does the Potency read?
The Potency was inconclusive [activator, partial curve].

CCOc1ccccc1COC(=O)c1cccc(-n2cnnn2)c1 was tested. Which Potency did it give?
The Potency was inconclusive [activator, single point].

For CCSc1cc(C)nc2c(-c3ccccc3)c(C)nn12, which Potency is on record?
Its Potency is inconclusive [activator, partial curve].

COc1ccc(-c2cc(NC=O)c3ncc(-c4ccc(OC)c(OC)c4)n3c2)cc1OC was tested. Which Potency did it give?
Its Potency is inconclusive [activator, full curve, poor fit].

Which “activation” value does the source give for COc1ccc(-c2[nH]c(-c3ccc(F)cc3)nc2SCC(=O)NC2CCCC2)cc1 here?
The value was inactive: 3.87%.

How did the Potency turn out when COc1ccc(-c2nc(C#N)c(NCC3CCCO3)o2)cc1 (centres undefined) was run?
The Potency was inconclusive [activator, single point].

Which “activation” value does the source give for Cc1ccc(NC(=O)c2sc3nc(N4CCOCC4)c4c(c3c2N)CC(C)(C)OC4)cc1 here?
Its value is inactive: 6.93%.

With CC1CCN(C(=O)c2cc3c(=O)n4ccccc4nc3s2)CC1 as the compound, how does the Potency read?
Its Potency is inconclusive [activator, single point].

Which “activation” value does the source give for O=C(Nn1c(C2CCCCC2)nc2ccccc2c1=O)c1ccc([N+](=O)[O-])cc1 here?
Its value is inactive: 0.959%.

With Cc1ccc2oc(NC(=O)N3CCOCC3)cc(=O)c2c1 as the compound, how does the Potency read?
The Potency was inconclusive [activator, full curve, poor fit].

COc1cccc(/C=N/Nc2ccc(S(=O)(=O)O)cc2)c1O was tested. Which “activation” value did it give?
The value was inactive: 0.874%.

CCOc1ccc(-c2nnc(-c3ccc(OC)cc3)o2)cc1 was tested. Which “activation” value did it give?
Its value is inactive: -14%.

COc1ccc(-c2c(C)nn3c(N)c(C#N)cnc23)cc1OC was tested. Which Potency did it give?
Its Potency is inconclusive [activator, partial curve].

How did the Potency turn out when COc1ccc(-c2ccc(=O)n(Cc3cc(=O)n4ccccc4n3)n2)cc1 was run?
Its Potency is inconclusive [activator, partial curve].

For CCN(C(=O)COc1ccc2ccc(=O)oc2c1)C1CCCCC1, which Potency is on record?
Its Potency is inconclusive [activator, partial curve, poor fit].

Which Potency does the source give for COc1ccc(-c2cnc3c(NC=O)cc(-c4ccoc4)cn23)cc1OC here?
Its Potency is inconclusive [activator, partial curve, poor fit].

COc1cc(C2C(C#N)=C(N)Oc3cc(N(C)C)ccc32)cc2c1OCO2 (centres undefined) was tested. Which Potency did it give?
The Potency was inconclusive [activator, full curve, poor fit].

For COC(=O)C(C)Sc1nc2c(c(=O)[nH]c(=O)n2C)n1CCC(C)C (centres undefined), which Potency is on record?
The Potency was inconclusive [activator, partial curve].

With CC(C)CCOc1ccc(/C=C2\CCn3c2nc2cc(C(=O)O)ccc2c3=O)cc1 as the compound, how does the “activation” value read?
Its value is inactive: -1.27%.

How did the activation turn out when O=C(NCc1ccccn1)C1CC(c2ccccc2O)=NO1 (centres undefined) was run?
The activation was inconclusive: 51.6% [activator].

With O=C(Nc1ccc(F)cc1)c1ccc(NC(=O)C2CCCO2)cc1 (centres undefined) as the compound, how does the “activation” value read?
The value was inactive: 1.17%.

With COc1cc(S(=O)(=O)N(Cc2ccccc2)Cc2ccccn2)ccc1-n1cnnn1 as the compound, how does the “activation” value read?
The value was inactive: -0.47%.

With COc1cc(-c2cnc3c(NC=O)cc(-c4cccnc4)cn23)cc(OC)c1OC as the compound, how does the Potency read?
Its Potency is inconclusive [activator, partial curve, poor fit].
